# Over roughly 4,500 sequences, “median log2 fold change of GCK-ALFA target abundance (FLAG IP / Myc IP barcode read proportion)” has its median near 0.078; the lowest 2% begin near -0.6. Some of the results follow.
# B1: GBRAP_184_5089 (protein)
# chain: KTLEELVEAETEEELLKKVEEVIEKVKKEKANLTVLVKMPGLDVETALKILDILGKAKKEGWFKEATVGFAEAFTEEEADKIIEKADEQGVKVVLALNEE
# B2: GBRAP_184_5163 (protein)
# chain: KVLEETIKAKNLEEAKEKLKKVRERAKKTKAPLYVLLELEKPEKEILELIFKELGEILKEGLATEVVLEITSDLTEEQIDFAVEEADKAGVKLVLAIDDE
# B3: GBRAP_128_3431 (protein)
# chain: SQEEKVAQAKALIDAALTASTEEVYKLTKEFMKVFGTLSPEAREKVADYAISKLPQLTKEQLEAVADAIREQLPTLDPYAQELAADVLVEALNEAEELEE
# B4: GBRAP_11_2888 (protein)
# chain: KKEKLKELAELARKIAELIEKLLEEGTDNEELLKEIEKLLKELEKLTKEYADKGSQKLTEIAKELFKKALEDPENRKEYLEELLAAVRVLEGDYLLEYEE
# B5: GBRAP_160_4271 (protein)
# chain: SEEREELIEDAEEDREEILELVDEITPEEIRTFAVTEMGSHLLEAIDLGLVTDEEEDKLLQIIDDLEKELKAAENATKEEIKKIITEHYDKFIELLKKAK
# B6: GBRAP_52_6372 (protein)
# chain: REAEARAIVDELLALAEAGDEEGVEALVREVLASGDGALQAAVLREIRRRLEARDHPDPEALLRLAAIVADEVLEAEVDSPEVWAALTALAAAALALERA
# B7: GBRAP_160_4621 (protein)
# chain: SEKLKKALELVEEAKEEVLSLIPEVSAEQFAHFLDAEFGSVILYLLEEGYISEETADKMMEVVDEAVAYILANPDLSDEERRALVEETAEKIKEIIKENS
# B8: GBRAP_184_5162 (protein)
# chain: AVLERVLDAENLEELEAKLEEIRAEAAATKAALLVDLRLPEPKKEMLEAALRRLGEILREGLATDVTVHILNDLTEEQVDFAVELADEAGVRLVLELPEE
# Target: GABARAP, O95166
# Sequence (O95166 whole entry, the tested form may be a part): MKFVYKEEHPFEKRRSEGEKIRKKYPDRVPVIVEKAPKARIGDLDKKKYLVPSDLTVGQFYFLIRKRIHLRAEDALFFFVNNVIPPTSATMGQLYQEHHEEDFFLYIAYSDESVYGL
# Assay: median log2 fold change of GCK-ALFA target abundance (FLAG IP / Myc IP barcode read proportion) (log2 ratio); each designed protein is fused to an ALFA-tag nanobody in HEK293 cells to bring the named protein to FLAG-tagged glucokinase (GCK); Myc marks an untargeted standard; higher = target protein stabilised (more abundant)
# Conditions: target protein: 3xFLAG-MCP-GCK-ALFA reporter; HEK293 landing pad (RPLP)
# Outline: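 The readout is target abundance, the per-binder median log2 ratio of FLAG to Myc barcode read proportions. It came from HEK293 landing-pad cells carrying a recombined ALFA-nanobody-fused binder library, induced with 2 μg mL^−1 doxycycline and transfected with a plasmid for a FLAG-tagged target and a Myc-tagged standard. After 48 h, lysates were immunoprecipitated with anti-FLAG and anti-Myc, and circular RNA barcodes were reverse transcribed, amplified and sequenced. Each barcode needed a proportion of at least 10^−7 in both replicates and each binder at least 3 barcodes per replicate, a pseudocount of 10^−6 was added, and the replicates were pooled.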
row,Binder,median log2 fold change
1,B1,0.024
2,B2,0.0688
3,B3,0.0253
4,B4,-0.0328
5,B5,-0.0457
6,B6,-0.638
7,B7,-0.336
8,B8,0.179

# Source: the supplement of paper PMC12632987
